Among all 310,000 compounds or so, about 14,000 (4.5%) showed an effect of 50% or more. The effect is printed as a negative number. The list shows a part of the results.
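Further: peak tail current of the secondary pulse compared with the same well before compound.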

The target in this assay is human ether-à-go-go-related gene (hERG) potassium channel (human, UniProt Q12809). Nature of the assay: primary screen, population patch clamp on CHO cells stably expressing hERG.
Sequence of human ether-à-go-go-related gene (hERG) potassium channel (Q12809 whole entry, looked up): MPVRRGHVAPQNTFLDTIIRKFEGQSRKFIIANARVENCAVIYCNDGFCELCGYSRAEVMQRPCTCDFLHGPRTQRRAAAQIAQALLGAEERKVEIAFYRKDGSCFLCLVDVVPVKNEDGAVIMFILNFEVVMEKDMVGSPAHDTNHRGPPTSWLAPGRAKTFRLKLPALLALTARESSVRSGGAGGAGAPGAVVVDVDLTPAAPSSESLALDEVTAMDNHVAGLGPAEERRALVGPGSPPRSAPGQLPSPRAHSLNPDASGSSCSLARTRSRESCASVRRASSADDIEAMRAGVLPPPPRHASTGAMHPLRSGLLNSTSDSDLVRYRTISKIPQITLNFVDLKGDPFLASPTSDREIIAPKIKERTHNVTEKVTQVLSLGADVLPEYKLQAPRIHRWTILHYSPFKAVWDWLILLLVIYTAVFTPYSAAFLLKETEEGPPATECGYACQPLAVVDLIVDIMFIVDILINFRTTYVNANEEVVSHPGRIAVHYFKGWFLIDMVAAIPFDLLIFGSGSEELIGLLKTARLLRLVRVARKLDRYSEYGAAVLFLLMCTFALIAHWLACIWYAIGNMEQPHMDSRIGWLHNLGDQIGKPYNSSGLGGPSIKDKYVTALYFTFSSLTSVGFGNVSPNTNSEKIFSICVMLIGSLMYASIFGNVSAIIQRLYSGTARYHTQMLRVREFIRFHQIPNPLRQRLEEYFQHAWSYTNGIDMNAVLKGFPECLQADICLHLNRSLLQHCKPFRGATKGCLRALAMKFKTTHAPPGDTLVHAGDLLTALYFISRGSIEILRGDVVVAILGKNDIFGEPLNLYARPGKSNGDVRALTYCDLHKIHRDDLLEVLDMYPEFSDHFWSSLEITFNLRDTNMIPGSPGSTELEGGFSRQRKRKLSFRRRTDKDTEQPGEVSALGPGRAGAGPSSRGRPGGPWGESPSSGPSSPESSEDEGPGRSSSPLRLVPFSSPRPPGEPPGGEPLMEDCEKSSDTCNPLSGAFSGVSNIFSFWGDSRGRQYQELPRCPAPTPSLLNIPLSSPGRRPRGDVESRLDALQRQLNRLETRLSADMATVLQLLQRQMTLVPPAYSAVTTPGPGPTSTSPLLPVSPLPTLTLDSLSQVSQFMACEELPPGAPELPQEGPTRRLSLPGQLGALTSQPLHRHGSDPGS
`O=C(CCCCCNC(=S)Nc1ccc(Cl)cc1)C[N+](=O)[O-]`: the “hERG current change (%, negative = inhibition) at 10uM” value is listed as 12.9%.
For `COc1ccc(N2CCn3c2nc2c3c(=O)n(CCCc3ccccc3)c(=O)n2C)c(OC)c1` the value was -7.43%; for `CN1CCN(NC(=S)NC2CCCCC2)CC1`, -10.7%.
The value for `CN1C(=O)C(c2nnc(Nc3cccc4ccccc34)s2)C2CC1(C)Oc1ccccc12` (centres unmarked) was -9.11%.
In the case of `FC(F)(F)c1ccccc1NC(=S)N1CCc2ccccc2C1`, the “hERG current change (%, negative = inhibition) at 10uM” value is on record as 24.7%.
For `COc1ccccc1N1CCN(C(=O)c2cc(-c3cccc(Cl)c3)on2)CC1` the value was -0.113%; for `S=C(Nc1ccc(Br)cc1Cl)NC1CCN(Cc2ccccc2)CC1`, -2.37%.
The value for `CS(=O)(=O)c1ccc2nc(NC(=O)C3COc4ccccc4O3)sc2c1` (centres unmarked) was -11.3%; that for `Cc1cc(C)cc(CN2C(=O)NC3(CCCCCC3)C2=O)c1` was -2.88%.
For `Cc1ccc([N+](=O)[O-])cc1NC(=O)Cc1ccc(F)cc1` the value was 33.2%; for `Fc1ccc(Cn2nnnc2CN2CCC(n3nnc4cc(C(F)(F)F)ccc43)CC2)cc1`, -69.6%.
On to `Cc1cccc(N2CCN(S(=O)(=O)c3cnc[nH]3)CC2)c1C`, for which the “hERG current change (%, negative = inhibition) at 10uM” value was -5.35%.
The value for `CCOc1cc(CO)c(Br)cc1OCC(=O)O` was 2.88%.
With `CCCOC(=O)COC(=O)c1ccccc1NC(=O)c1ccccc1`, the “hERG current change (%, negative = inhibition) at 10uM” value came out at 13%.
The value for `Cc1ccc(C(C)NC(=O)Cn2nc(C)c([N+](=O)[O-])c2C)cc1` (centres unmarked) was -6.81%.
Turning to `CC1(C)CC(=O)C2=C(C1)N(CC1CCCO1)C(=O)C2(O)C(F)(F)F` (centres unmarked), the “hERG current change (%, negative = inhibition) at 10uM” value was 1.53%.
The value for `N#Cc1nc(COc2ccccc2)oc1N1CCCCC1` was -21.4%.
The value for `NS(=O)(=O)c1ccc(CCNC(=O)CN2CCCCCC2)cc1` was 7.39%; that for `O=C(c1cc2ccccc2oc1=O)N1CCN(S(=O)(=O)c2ccccc2)CC1` was -20.2%; that for `COc1cc(C(=O)NCc2nnc(SCC(=O)N3CCc4ccccc43)o2)cc(OC)c1OC` was -0.961%.
The value for `C(=C/c1ccnc2nc(SC/C=C/c3ccccc3)nn12)/c1ccccc1` was -2.97%; that for `Cc1cccc(OCCOC(=O)CN2C(=O)NC3(CCCC3)C2=O)c1` was 7.38%.
In the case of `O=C(Nc1cccnc1)NC1CCCCC1`, the “hERG current change (%, negative = inhibition) at 10uM” value is recorded as 19.1%.
`Cc1cc(C(=O)Nc2cc(S(C)(=O)=O)ccc2Cl)no1`: the “hERG current change (%, negative = inhibition) at 10uM” value is given as -22.2%.
The value for `CCOC(=O)C1=C(NC(=S)NC(=O)c2ccccc2)c2ccccc2CC1C(C)C` (centres unmarked) was 17%; that for `Cc1ccc(-c2nnc(SCCC(=O)N3CCOCC3)o2)cc1` was 19.4%; that for `COc1cc(/C=N/NC(=O)c2ccc(=O)[nH]n2)ccc1O` was -1.17%.
Consider `Cc1noc(C(=O)Nc2ccc(Cl)cc2)c1Cl`, for which the “hERG current change (%, negative = inhibition) at 10uM” value is 15.7%.
For `CCOC(=O)NCCOC(=O)Nc1ccc(Cl)cc1` the value was -8.67%.
In the case of `CCOC(=O)c1ccc(-c2c(C(=O)OCC)oc3cc(O)c(CC)cc3c2=O)o1`, the “hERG current change (%, negative = inhibition) at 10uM” value is recorded as -1.47%.
`C=CCN=c1scc(-c2ccccc2)n1/N=C/c1ccccn1`: the “hERG current change (%, negative = inhibition) at 10uM” value is reported as -0.821%.
With `O=CN1CCN(S(=O)(=O)c2ccc(S(=O)(=O)NC3CCCCC3)cc2)CC1`, the “hERG current change (%, negative = inhibition) at 10uM” value is recorded as -4.61%.
The value for `O=C(Nc1ccccc1)c1cccc(N2C(=O)C3C4CC(C(Br)C4Br)C3C2=O)c1` (centres unmarked) was 15.7%.
For `CCCCc1nc(NCCN2CCOCC2)c(C#N)c2c1COC(C)(C)C2` the value was -12.3%.
For `O=C(COc1ccc(Cl)cc1)NC1CCSC1=O` (centres unmarked) the value was -16.8%.
For the compound `Cc1ccc(NC(=O)CN(c2ccc(Cl)cc2)S(=O)(=O)c2cc([N+](=O)[O-])ccc2Cl)c(C)c1`, the “hERG current change (%, negative = inhibition) at 10uM” value is recorded as 12.6%.
The value for `Cc1cc(/C=C(\C#N)C(=O)Nc2ccccc2)c(C)n1-c1ccc(C(=O)O)cc1` was -1.99%; that for `CC(=O)NC1(c2cccc(F)c2)CCN(CC(=O)NC2CCCCC2)CC1` was 8.06%.
In the case of `COc1ccc(/C=C/C(=O)NNC(=O)c2ccncc2)c(OC)c1`, the “hERG current change (%, negative = inhibition) at 10uM” value is given as -2.26%.
For `O=C(CSc1nnc2sc3ccccc3n12)NCc1ccco1` the value was 13.6%; for `N#CCC(=O)Nc1ncn(Cc2ccccc2Cl)n1`, 15.4%.
For `Cc1cccc(C)c1Nc1nnc(SCC(=O)NCc2cccs2)s1` the value was -9.12%; for `COCCn1cnnc1SCC(=O)c1ccc(S(=O)(=O)N2CCCC2)cc1`, 5.59%; for `COc1cc2c3nnc(-c4ccc(F)cc4)c-3cn(Cc3ccccc3)c2cc1OC`, -37.1%.
Consider `CCn1c(Cl)c(C=O)s/c1=N\S(=O)(=O)c1ccccc1`, for which the “hERG current change (%, negative = inhibition) at 10uM” value is -5.66%.
The value for `COC1c2ccccc2C(=O)N1Cc1ccc(F)cc1` (centres unmarked) was 5.48%; that for `NC(=O)C(c1ccccc1)C1CCCCC1` (centres unmarked) was 0.152%.
For `COc1cc(OC)cc(C(=O)OCc2cc3ccccc3[nH]c2=O)c1` the value was 1.97%.
On to `CC(=O)c1ccc(NC(=O)COC(=O)c2c3c(nc4ccccc24)/C(=C\c2cccs2)CCC3)cc1`, for which the “hERG current change (%, negative = inhibition) at 10uM” value came out at 7.62%.
Take `Cc1ccccc1CSc1nncn1N`: the “hERG current change (%, negative = inhibition) at 10uM” value is 3.3%.
Turning to `CC(C)N(Cc1nc(-c2ccccc2)no1)C(=O)c1ccc([N+](=O)[O-])cc1`, the “hERG current change (%, negative = inhibition) at 10uM” value is -30.1%.
Turning to `CC(NCC1(N2CCOCC2)CCCCC1)C(=O)N1CCc2ccccc21.O=C(O)C(=O)O` (centres unmarked), the “hERG current change (%, negative = inhibition) at 10uM” value was -5.73%.
The value for `COc1ccccc1-n1c(C)cc(C=O)c1C` was 8.5%; that for `COc1cc(/C=C(\NC(=O)c2ccccc2)C(=O)NCC(=O)O)c([N+](=O)[O-])cc1OC` was 13.1%.
For the compound `COC(=O)c1ccc(NC(=O)c2cc(Cl)ccc2OC)cc1`, the “hERG current change (%, negative = inhibition) at 10uM” value was found to be 19.8%.
The value for `Cc1c(NC(=O)c2cccnc2)c(=O)n(-c2ccccc2)n1C` was 17.2%; that for `Cc1ccc(-c2nc(Cl)nc3ccccc23)cc1` was 10.3%.
For `COc1ccc(CNc2ccccc2)cc1Br` the value was -40.2%; for `CCOc1ccc(-c2cc(C(=O)N/N=C/c3cccnc3)c3ccccc3n2)cc1`, 1.66%.
The value for `O=C(NCCc1ccccc1)C(c1ccncc1)N(C(=O)c1csnn1)C1CC1` (centres unmarked) was -7.72%.
With `Cc1cccc(N(C(=O)c2nsc(Cl)c2Cl)C(C(=O)NC2CCCC2)c2ccc(O)cc2)c1` (centres unmarked), the “hERG current change (%, negative = inhibition) at 10uM” value is listed as -2.24%.
In the case of `Oc1cc(-c2ccccc2)c2ccccc2c1`, the “hERG current change (%, negative = inhibition) at 10uM” value is 36%.
Take `C/C(=N\N=C(N)N)c1cccc(Cl)c1`: the “hERG current change (%, negative = inhibition) at 10uM” value turned out to be 0.717%.
Consider `Cc1cccc(N2CC(C(=O)O)CC2=O)c1` (centres unmarked), for which the “hERG current change (%, negative = inhibition) at 10uM” value is listed as -15.2%.
As to `O=C(CN1C(=O)NC2(CCCC2)C1=O)Nc1nc(-c2ccc(F)c(F)c2)cs1`, the “hERG current change (%, negative = inhibition) at 10uM” value was -3.57%.
The value for `COc1ccc(-n2c(SCC(=O)Nc3cc(C(=O)O)ccc3C)nc3ccccc3c2=O)cc1Cl` was 21.3%; that for `CC(OC(=O)c1cccc(S(=O)(=O)N(C)C)c1)C(=O)NCc1ccc2c(c1)OCO2` (centres unmarked) was -7.17%.
For `Cc1c(-c2ccco2)[n+](=O)c2c(n1[O-])CCC2`, the “hERG current change (%, negative = inhibition) at 10uM” value was determined as 3.22%.
For `Cc1cc(NC(=O)CSCc2ccccc2C)no1` the value was 5.18%.
Consider `O=C(CN1C(=O)C2CCCCC2C1=O)N1CCN(c2ccccc2)CC1` (centres unmarked), for which the “hERG current change (%, negative = inhibition) at 10uM” value came to 17.9%.
The value for `COc1ccc(-c2onc(C)c2-c2cnn(-c3ccccc3)c2)c(O)c1C` was 8.33%; that for `COc1ccc(CCNC(=O)CSc2nnnn2-c2ccccc2)cc1` was -8.8%.
For `CN(CC(=O)Nc1cccc(F)c1)C(=O)c1ccc(N2CCCCCC2)c([N+](=O)[O-])c1` the value was 17.9%; for `CCc1cccc(C)c1NC(=O)C(c1ccc(O)cc1)N1CCC1=O` (centres unmarked), 15%; for `CC(C)c1c(C(=O)N/N=C/c2ccc3c(c2)OCO3)nnn1-c1nonc1N`, 9.69%.
For the compound `O=C(COc1ccc(S(=O)(=O)N2CCOCC2)cc1Cl)NCC1CCCO1` (centres unmarked), the “hERG current change (%, negative = inhibition) at 10uM” value came to 4.46%.
The value for `CC(CC(=O)N(C)C1CCCCC1)S(=O)(=O)c1ccc2c(c1)NC(=O)CO2` (centres unmarked) was 14%; that for `O=C(Nc1cccc(S(=O)(=O)NC2=NCCC2)c1)c1c(F)cccc1Cl` was 0.454%.
For `Cc1cc(C)cc(NCC(=O)Nc2c(C)cccc2C)c1` the value was 0.639%; for `Cc1cc(C)n(CC(=O)N2CCCC(N3CCN(c4ccc(F)cc4)CC3)C2)n1` (centres unmarked), -18.1%.
Turning to `O=c1[nH]c(-c2ccccc2)nnc1-c1ccccc1`, the “hERG current change (%, negative = inhibition) at 10uM” value was -5.79%.
For `Cc1nn(-c2ccccc2)c(C)c1C(=O)OC/C(O)=C(\C#N)c1nc2ccccc2[nH]1` the value was -3.02%; for `Cc1ccc(OCCn2ncc3ccccc3c2=O)c(C)c1`, 1.23%.
For `CNCC(O)CN1CCN(c2ccccc2OC)CC1.Cl` (centres unmarked) the value was 12.7%; for `COc1ccc(-n2ccnc2SCC(=O)NCc2ccccc2)c(OC)c1`, -3.19%; for `Cc1oc(-c2cccc(C(F)(F)F)c2)nc1CN1CCC[C@H]1CO`, -35%.
For `CC(Sc1ccccn1)C(=O)Nc1ccc2c(c1)OCO2` (centres unmarked) the value was 11.8%.
Regarding `C[C@]12CC[C@@H](O)C[C@@H]1CC[C@@H]1[C@@H]2CC[C@]2(C)C(=O)CC[C@@H]12`, the “hERG current change (%, negative = inhibition) at 10uM” value stood at 5.99%.
For `COc1cc2c(cc1OC)-c1cc(Nc3ccc(C)cc3)nc(=O)n1CC2` the value was -8.97%.

The record behind these values is publication PMC4336329 (PLoS ONE, 2015).
